Reference: paper PMC12136788
The list shows a part of the results.

T1: UNK ZnF1-3 (human, UniProt Q9C0B0 31-174)
T1 sequence: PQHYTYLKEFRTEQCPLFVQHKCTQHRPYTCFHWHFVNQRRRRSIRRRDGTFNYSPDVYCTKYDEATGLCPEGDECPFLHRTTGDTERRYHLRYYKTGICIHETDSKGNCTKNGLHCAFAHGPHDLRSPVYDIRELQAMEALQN

B1: chr10:12291664:12291665:+_ENSG00000151465_ENST00000378900|hu_hu|motif|central (ssRNA)
RNA: GGGAGUUCUACAGUCCGACGAUCGUUCCAGUACGCUCAUCAGUCGUCCUCCUGCUGAUUUCUCUUCAGCUUAAGGAAGUCGGUUAGCUUGUGAGCGUCCUCCCCAGUAGAGAGGUCUACAAAGUCCUUGGGUAGCCGGUAACUCAACAGAGGAUUGAGCAUCA
B2: 10056728_10056848_905_CDS_ENSMUSG00000056763_ENSMUST00000071087|mouse|control|control (ssRNA)
RNA: GGGAGUUCUACAGUCCGACGAUCAAACCUCUCGUCCAUGUCUUCACUCACACCAGGGUCUCGGUCGGCUCUGCAAUGUUGUCUGUCAAGCACCCGCUCCCCGUUAGCCCUGCGGGCUCUUCUCUCUGGGACACCAGCGCUGCCCAACAGAGGAUUGAGCAUCA
B3: chr5:54693298:54693299:+_ENSG00000039123_ENST00000230640|hu_mus|FALSE|FALSE (ssRNA)
RNA: GGGAGUUCUACAGUCCGACGAUCUUUUAAGACACUCUGUCUGUUGUCCACAGGUCGAAGGUCUUUUGGAAUAUAGAGCCUGACAGUGCUGAUGGCAGACAGGAGAUGCACCAAAACUGGAACAACCUGCAUCUCCCCUUUCUCCAACAGAGGAUUGAGCAUCA
B4: 142705494_142712874_349_3pUTR_ENSMUSG00000030282_ENSMUST00000032419|mouse|control|control (ssRNA)
RNA: GGGAGUUCUACAGUCCGACGAUCGAUGGACCUGUGCACCAAACUGUUUGGCCACAUUCUCAAUUUCAUCAUGGUCUGUUGAAACCCACACACUCUGGAAGACCCCCGCAUCCAGGGCGGCGCGCAGGACCCAGCCAAUGAGCGCAACAGAGGAUUGAGCAUCA
B5: chr17:65740002:65740003:+_ENSG00000130935_ENST00000581375|hu_hu|hu_hu_hu_mus_False|28_48 (ssRNA)
RNA: GGGAGUUCUACAGUCCGACGAUCAACAAAUCUUUCUUCCCUGGACGAACAGGAAGAUUCAUAUUAAAAAAAAUAUAUAUCCAUCAAGGAGAAUUGAGUGGCCACACAGAGCUCCAGAGCACUUUGGGAGGUGGAUCUCUGAGUCAACAGAGGAUUGAGCAUCA
B6: 125507366_125507486_2970_CDS_ENSMUSG00000029478_ENSMUST00000125053|mouse|control|control (ssRNA)
RNA: GGGAGUUCUACAGUCCGACGAUCUGGGUGAGGAGGCGGGCUCCCGGGCCGGGGGUUUGGUGAGGAAGGCAUGGCCAGCGUCCACACGGGGCCGCUCGGGCCGGGCGACCCGAGAGGUCUCCUUGGGUAACAGGACGGGCUCCACAACAGAGGAUUGAGCAUCA
B7: 76055227_76076951_758_CDS_ENSMUSG00000021589_ENSMUST00000022078|mouse|control|control (ssRNA)
RNA: GGGAGUUCUACAGUCCGACGAUCCCCUUCUGUGGUGGUAACACAGCUCCCUCGGUCUGAAGUACACAGGGGGCAUGUACAAGGUAAUUCUUCAUUUUGUCUCGUACCAACAGCCGCAAUGAUUACCGGAACUGAGUUUGAUGCCAACAGAGGAUUGAGCAUCA
B8: chr3:102833055:102833056:+_ENSMUSG00000068823_ENSMUST00000029446|mus_hu|motif|central (ssRNA)
RNA: GGGAGUUCUACAGUCCGACGAUCUUCAGUAGUAUUUGCUGAUUCUUCUUUUUCAGCACACGUUUCAAAGGAUGAAAGUUGCGGGUAUUAAAAAAAAGAGCGAGAGAAAAUGAUCUACCAAGCUAAUAAAGAAUACAACUGCUGCAACAGAGGAUUGAGCAUCA
B9: chr17:88413838:88413839:-_ENSMUSG00000005371_ENSMUST00000130379|mus_hu|FALSE|FALSE (ssRNA)
RNA: GGGAGUUCUACAGUCCGACGAUCUACACAAGCUGCUCUACAAAGAUCCUGUUCCAGCAAGUAAGAGAAGAUUUUUAGAACCACUUCAUCUGGCAGUUUCUCCUGAAGAUACUGUUCAGCAGGUGCUGCUGAUAGAUCUUGUGACAACAGAGGAUUGAGCAUCA
B10: chr17:62496016:62496017:-_ENSG00000108654_ENST00000581693|hu_mus|motif|central (ssRNA)
RNA: GGGAGUUCUACAGUCCGACGAUCCUGAUAACACACAAUAUAAAGAGCAAUUAUGAAAAACAGACAUUUACAUAUACUUCGGAAGUCUUAUUGAGAAUACCCUGUUGGCAUGGGAUAGCCAAUCAUAGGCGCAGCAGCUGCGGUCAACAGAGGAUUGAGCAUCA
B11: 53529767_53529887_1599_CDS_ENSG00000100523_ENST00000323669|human|control|control (ssRNA)
RNA: GGGAGUUCUACAGUCCGACGAUCAACUGGAUUCCAGCCAGUCAUUAUGUCAUAAGUAAUUACACAUCCCAAGGAAUGUGAUACUAUUGAGACUUUACCCCCUUUUUCUUCAAAGUCUGGAUUCCGAGAACAGAAAAGGGAAUACAACAGAGGAUUGAGCAUCA
B12: 139368980_139369100_3101_CDS_ENSG00000148396_ENST00000313050|human|control|control (ssRNA)
RNA: GGGAGUUCUACAGUCCGACGAUCUUGUCUGGGAUGACUGGCAACACUUUGCUGAGAAGCGAGGCUGUCAGAAUGGGACGGGUUGUACACGUUUACAGGAUUUUCCAAAGUCCUGCUUAAGGUAAAGUCUAGGGCUCCGUAAGUCAACAGAGGAUUGAGCAUCA
B13: chr14:56483160:56483161:+_ENSMUSG00000075592_ENSMUST00000168479|mus_hu|FALSE|FALSE (ssRNA)
RNA: GGGAGUUCUACAGUCCGACGAUCAGCCUGUAGUUGGGGUGUAGAGGUCAAGGGUGGCCCUAUCUGUGGGAGAUCCGAGCUAACUUUGUCUUUUACAUCUGAGCUCCCAGGGACCACCAAUAAACUCGUAACUUUUGGGGAAAUCAACAGAGGAUUGAGCAUCA
B14: 80037470_80040787_425_CDS_ENSMUSG00000017686_ENSMUST00000092857|mouse|control|control (ssRNA)
RNA: GGGAGUUCUACAGUCCGACGAUCUGUUACCUUAUCAAUAGAAUGUUUGUUGUUAACAGCAUAAACUAUGCAGAUAACAUUAGCCUGUGAUAUUUCUUGAUGAAGUUGUUCAUCACUCUGUUCUGCUUCUGAAUAAUCGACAAUCAACAGAGGAUUGAGCAUCA

Each binder was assayed against T1, UNK ZnF1-3 (assay: nsRBNS (natural sequence RNA bind-n-seq); RBNS binding buffer (assumed for nsRBNS): 25 mM Tris pH 7.5, 150 mM KCl, 3 mM MgCl2, 0.01% Triton X-100, 500 ug/ml BSA, 20 U/ml SUPERase-In, 4 C; UNK is unkempt and MSI1 is Musashi-1; names of the RNAs are library labels; protein concentration not given here; high values mean tight binding).

Row | Binder | binding signal [enrichment R]
1 | B1 | 0.289
2 | B2 | 0.814
3 | B3 | 0.509
4 | B4 | 0.588
5 | B5 | 1.73
6 | B6 | 1.44
7 | B7 | 0.787
8 | B8 | 1.35
9 | B9 | 0.713
10 | B10 | 1.33
11 | B11 | 0.583
12 | B12 | 0.876
13 | B13 | 1.07
14 | B14 | 0.352
